Measured values from PubChem BioAssay (NCATS).
Where “and” joins values, the source holds several entries; their conditions need not be identical. Equal entries are not always repeated. The inconclusive results got no clear call from the source; some entries with a clear call stand among them for comparison. Potencies beside an inconclusive call are fits to weak or partial responses and may not hold up. Calls of active or inactive are those of the source. The call rests on the fitted dose curve; in most records, active means well fitted curve in the direction sought with a large enough effect; inconclusive means small, poorly fitted or top-dose-only effect, or another doubt; inactive means no such curve, though single readings can be large; an effect the other way counts as inactive or inconclusive.

Key:
[1] = NS1 protein of Zika virus - qHTS assay to identify small molecule inhibitors in human HEK 293 cells (AID 1347053); further: nearly all actives have a fitted effect of over 55% in size
In short: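 In this cell-based screen, HEK 293 cultures received compound for one hour before Zika MR766 at MOI = 0.5. NS1 was quantified 24 hours later by TR-FRET, normalized to virus-free wells and infected wells.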

[2] = qHTS of pediatric cancer cell lines to identify multiple opportunities for drug repurposing: Primary screen for TC32 cells (AID 1347089); further: nearly all actives have a fitted effect of over 60% in size
In short: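 TC32 cells, 500-1,000/well in growth medium, compound-treated 48 h at 37 °C; viability from CellTiter-Glo luminescence. Primary screen: MIPE 11-point (0.78 nM–46 µM final), NPC 8-point (0.59 nM–46 µM final); confirmatory at 11-point dilutions.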

[3] = qHTS of pediatric cancer cell lines to identify multiple opportunities for drug repurposing: Primary screen for DAOY cells (AID 1347090); settings: DAOY medulloblastoma viability, CellTiter-Glo luminescence, 48 h; activity change, negative = cytotoxic: at 46 µM (top of the series) unless noted; further: nearly all actives have a fitted effect of over 55% in size;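 on activity change, negative = cytotoxic: plate controls were DMSO for no effect and bortezomib for full effect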
In short: (§1)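 Cell viability, CellTiter-Glo luminescence; 500-1,000 cells/well, 8- or 11-point titration, 48 h compound exposure at 37 degrees C, 5% CO2. Controls: DMSO neutral, bortezomib 2.3 µM final as positive.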

[4] = qHTS of pediatric cancer cell lines to identify multiple opportunities for drug repurposing: Primary screen for SJ-GBM2 cells (AID 1347091)
In short: as §1
Potency means the concentration at half of the fitted maximal effect; tags describe the fitted curve by direction and shape.

SMILES	Potency [1]	Potency [2]	activity change, negative = cytotoxic [3]	Potency [4]	Potency [3]
CO[C@H]1C(=O)[C@]2(C)[C@@H](OC)C[C@H]3OC[C@@]3(OC(C)=O)[C@H]2[C@H](OC(=O)c2ccccc2)[C@]2(O)C[C@H](OC(=O)[C@H](O)[C@@H](NC(=O)OC(C)(C)C)c3ccccc3)C(C)=C1C2(C)C	inconclusive: 5.26 µM [inhibitor, partial curve, poor fit]	active: 1.47 µM	inconclusive: -59.4%	inconclusive: 0.001 µM [cytotoxic, full curve, poor fit]	
CCN1/C(=C/C=C/c2sc3ccccc3[n+]2CC)Sc2ccccc21	active: 3.55 µM			inconclusive: 10.3 µM [cytotoxic, single point]	active: 1.16 µM
O=C(NCc1ccccc1)c1csc(Nc2ccncn2)n1	inconclusive: 37.2 µM [inhibitor, single point]			inconclusive: 18.7 µM [cytotoxic, single point]	inconclusive: 14.8 µM [cytotoxic, partial curve]
O=C(Nc1ccc(OC(F)(F)F)cc1)c1sccc1NCc1ccnc2ccccc12	inactive				inconclusive: 23.5 µM [cytotoxic, partial curve, poor fit]
COCCn1c2c([n+](Cc3cnccn3)c1C)C(=O)c1ccccc1C2=O	active: 0.0372 µM			active: 0.0132 µM	active: 0.0118 µM
CC(=O)N(C)C1(c2ccccc2)CCN(CCC[C@]2(c3ccc(Cl)c(Cl)c3)CCCN(C(=O)c3ccccc3)C2)CC1	active: 26.4 µM	inconclusive: 9.3 µM [cytotoxic, partial curve, poor fit]		inconclusive: 33.2 µM [cytotoxic, single point]	inconclusive: 23.5 µM [cytotoxic, single point]
CC(O)=C(C#N)C(=O)Nc1ccc(C(F)(F)F)cc1	active: 13.2 µM	inconclusive: 18.6 µM [cytotoxic, partial curve, poor fit]		inconclusive: 3.72 µM [cytotoxic, full curve]	inconclusive: 14.8 µM [cytotoxic, partial curve]
O=c1cc(CN2CCOCC2)occ1OCCCCCSc1ccnc2cc(C(F)(F)F)ccc12	inconclusive: 33.2 µM [inhibitor, single point]				inconclusive: 23.5 µM [cytotoxic, single point]
CCCS(=O)c1ccc2nc(NC(=O)OC)[nH]c2c1 (configuration not stated)	inconclusive: 37.2 µM [inhibitor, partial curve, poor fit]	inconclusive: 33.3 µM [cytotoxic, single point]		active: 21.1 µM and active: 18.7 µM	
c1ccc(CCNc2nc(-c3ccccc3)cs2)cc1	inconclusive: 6.31 µM [inhibitor, single point]			inconclusive: 11.9 µM [cytotoxic, partial curve, poor fit]	inconclusive: 33.5 µM [cytotoxic, partial curve, poor fit]
O=C(NOCC1CC1)c1ccc(F)c(F)c1Nc1ccc(I)cc1Cl	inconclusive: 22.4 µM [inhibitor, single point] and inconclusive: 37.2 µM [inhibitor, single point]	inconclusive: 29.7 µM [cytotoxic, single point]		inconclusive: 29.9 µM [cytotoxic, single point] and active: 9.35 µM	
C=CC(=O)Nc1cccc(Sc2nc(Nc3ccc(N4CCN(C)CC4)cc3)ncc2Cl)c1	inconclusive: 37.2 µM [inhibitor, single point]	inconclusive: 37 µM [cytotoxic, single point]		inconclusive: 29.6 µM [cytotoxic, single point]	
NS(=O)(=O)c1cccc2c1C(=O)c1cccc(O)c1C2=O	active: 3.32 µM				active: 0.935 µM
COC(=O)C1=CO[C@@H](O)[C@@H]2C(CO)=CC[C@@H]12	inconclusive: 37.2 µM [inhibitor, single point]			inconclusive: 26.4 µM [cytotoxic, single point]	inconclusive: 37.2 µM [cytotoxic, single point]
